Assay results taken from article PMC4336329 (PLoS ONE, 2015).
The campaign covered roughly 310,000 compounds. About 14,000 (4.5%) showed an effect of 50% or more. Effects have a minus sign here. The list shows a part of the results.

biological target: human ether-à-go-go-related gene (hERG) potassium channel (human, UniProt Q12809); test: primary screen, population patch clamp on CHO cells stably expressing hERG
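Also: peak tail current of the secondary pulse compared with the same well before compound.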

Sequence of human ether-à-go-go-related gene (hERG) potassium channel (Q12809 whole entry, looked up): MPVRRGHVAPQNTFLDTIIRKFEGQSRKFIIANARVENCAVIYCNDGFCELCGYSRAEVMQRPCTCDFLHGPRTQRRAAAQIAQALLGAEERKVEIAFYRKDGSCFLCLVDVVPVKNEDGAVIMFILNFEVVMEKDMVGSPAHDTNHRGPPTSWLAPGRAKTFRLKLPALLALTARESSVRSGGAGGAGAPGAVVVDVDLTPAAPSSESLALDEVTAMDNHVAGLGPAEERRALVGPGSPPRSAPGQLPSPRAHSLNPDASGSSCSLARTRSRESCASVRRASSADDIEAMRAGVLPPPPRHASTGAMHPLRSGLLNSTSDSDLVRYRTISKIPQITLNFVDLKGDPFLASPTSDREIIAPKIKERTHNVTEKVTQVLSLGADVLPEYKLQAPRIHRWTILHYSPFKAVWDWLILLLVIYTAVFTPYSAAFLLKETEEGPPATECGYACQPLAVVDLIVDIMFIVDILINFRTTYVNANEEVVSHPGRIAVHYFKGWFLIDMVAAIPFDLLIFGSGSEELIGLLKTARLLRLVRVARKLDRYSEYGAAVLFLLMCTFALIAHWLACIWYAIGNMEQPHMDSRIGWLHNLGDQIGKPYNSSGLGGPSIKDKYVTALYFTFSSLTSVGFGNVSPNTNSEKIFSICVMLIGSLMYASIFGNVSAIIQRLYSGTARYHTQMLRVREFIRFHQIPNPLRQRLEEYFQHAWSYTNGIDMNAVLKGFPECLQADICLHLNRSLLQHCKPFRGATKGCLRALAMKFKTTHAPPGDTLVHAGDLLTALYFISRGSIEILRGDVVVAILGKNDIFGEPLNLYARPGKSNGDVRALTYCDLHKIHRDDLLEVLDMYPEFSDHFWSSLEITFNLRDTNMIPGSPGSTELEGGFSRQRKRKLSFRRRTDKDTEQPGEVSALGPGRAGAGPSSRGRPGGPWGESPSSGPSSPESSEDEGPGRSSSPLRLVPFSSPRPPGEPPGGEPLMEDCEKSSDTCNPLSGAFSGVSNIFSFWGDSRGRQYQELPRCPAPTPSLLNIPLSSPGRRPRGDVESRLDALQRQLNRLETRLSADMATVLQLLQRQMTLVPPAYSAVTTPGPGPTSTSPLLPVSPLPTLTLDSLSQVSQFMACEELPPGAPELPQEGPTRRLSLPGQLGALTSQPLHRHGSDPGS

SMILES | hERG current change (%, negative = inhibition) at 10uM [%]
CCOc1cccc(OCCCOc2cccc3cccnc23)c1 | -8.52
COc1ccc(/C=N\NC(=O)CCN2CCN(c3ccccc3)CC2)cc1OC | -56.9
Cc1cc(C)n(CCc2nc(-c3ccc(C(C)(C)C)cc3)cs2)n1 | 2.1
O=C(NCc1cccnc1)C1CCCN1S(=O)(=O)c1ccc(Cl)cc1 (centres unmarked) | -22.2
C#CCN(C(=O)c1ccc(OC)c(OC2CCN(C(C)C)CC2)c1)C1CCCCC1 | -46.4
Cc1ccc2cccc(SCC(=O)NCc3ccco3)c2n1 | 1.96
Cc1cccc(NC2=NC3(CCCCC3)N=C(N)N2)c1C | 16.3
O=C(COc1ccc(S(=O)(=O)N2CCOCC2)cc1Cl)NC1CC1 | 3.02
CC(=O)Nc1ccc2c(c1)CCc1ccccc1-2 | 15.1
CC(C)(C)CC(=O)Nc1ccc(-c2cn3cccnc3n2)cc1 | 6.66
CSc1ncc(Cl)c(C(=O)C(C#N)c2nc3c(C)cc(C)cc3c(=O)[nH]2)n1 (centres unmarked) | 24.6
Nc1nc(-c2ccc(F)cc2)cs1 | -1.1
COc1cc(C2C=C(Nc3ccccc3)C(=O)N2c2ccccc2)ccc1O (centres unmarked) | 0.128
COC(=O)c1ccc(C2C(C(C)=O)=C(O)C(=O)N2CCO)cc1 (centres unmarked) | 6.11
CC(=O)Nc1c2c(nn1-c1cccc(Cl)c1)CS(=O)(=O)C2 | -16.8
Cc1cc(C(=O)NC(C)c2ccc3c(c2)OCO3)cs1 (centres unmarked) | -8.95
CCOC(=O)N1CCC(NC(=O)c2cc3c(=O)[nH]c4ccccc4c3n2C)CC1 | -3.23
CC(=O)C12OC1CC1C3CCC4=CC(=O)CCC4(C)C3CCC12C (centres unmarked) | -1.96
CCN(CC)C(=O)c1cccc2c1C(=O)c1ccccc1-2 | 0.818
N=C(N)c1ccc(/C=C/c2ccc(C(=N)N)cc2O)cc1.O=S(=O)(O)CCO | 5.09
O=C(Nc1ccc(S(=O)(=O)Nc2cnc3ccccc3n2)cc1)c1ccccc1Br | -10.5
Cc1nn(C)c(C)c1CNC(=O)Nc1ccc(Cl)cc1 | -5.93

SMILES | hERG current change (%, negative = inhibition) at 10uM [%]
COc1ccc(/C=N/NS(=O)(=O)c2ccccc2)cc1OS(=O)(=O)c1ccccc1 | -4.53
CC1CCCN(C(=O)CCS(=O)(=O)c2cc3c(cc2Cl)NC(=O)CO3)C1 (centres unmarked) | -27
CCOc1ccc(N(CC(=O)NC2CCCCCC2)S(=O)(=O)c2c(C)noc2C)cc1 | -18.2
COc1cc2c(cc1OC)C(c1cccs1)N(C(=S)NC(C)C)CC2 (centres unmarked) | -40
CN(C(=O)CS(=O)(=O)Cc1ccccc1Cl)c1ccccc1 | 8.38
Cc1cc(C)n(-c2nc(C)nc3c2cnn3-c2ccccc2)n1 | 13
C=CCn1c(NCc2c[nH]c3ccccc23)nc2ccccc21 | -27.6
O=C(COc1ccccc1)NC1CCCN(Cc2ccccc2F)C1 (centres unmarked) | -15.1
COc1ccc(/C=N/NC(=O)c2ccccc2O)cc1Cn1nnc2ccccc21 | -5.6
O=C(N/N=C\c1ccccc1)c1sccc1-n1cccc1 | -17.5
CSCCC(NS(=O)(=O)c1ccc(C)cc1)C(=O)N1CC=C(c2ccccc2)CC1 (centres unmarked) | 10.2
O=C(O)CCC(=O)NC1CCCCC1 | 6.89
O=C(CCC(=O)N1CCN(S(=O)(=O)c2ccc3ccccc3c2)CC1)NCC(F)(F)F | 25.8
CCNS(=O)(=O)c1ccc2c(c1)n(C)c(=O)n2C | -5.88
COC(=O)CSc1ncnc2scc(-c3ccccc3)c12 | -22.1
Cc1ccc(C(=O)N/C(=C/c2ccc(F)cc2)C(=O)NCc2ccncc2)cc1 | -72.8
CCCOc1ccc(CSC2=NCCN2)cc1[N+](=O)[O-] | -66.7
O=C(c1cnn2c1NC(c1ccc(Br)cc1)CC2C(F)(F)F)N1CCN(C23CC4CC(CC(C4)C2)C3)CC1 (centres unmarked) | -7.5
CCOc1ccc(N(C(=O)Cn2nnc3ccccc32)C(C(=O)NC(C)(C)CC)c2cccn2C)cc1 (centres unmarked) | 22.7
Cc1cccc(NC2=C(Cl)C(=O)OC2NC(=O)c2ccccc2)c1 (centres unmarked) | 1.58
CCOc1ccc(NC(=O)CCN2C(=O)c3cccc([N+](=O)[O-])c3C2=O)cc1 | 12.1
Cc1ccc(NC(=O)NC(=O)c2ccccc2)cc1F | 18.1
